Consider 4 compounds from PubChem BioAssay AID720664 (National Center for Advancing Translational Sciences (NCATS), 2013).

Records with an inconclusive call do not appear. Calls come from the whole dose curve; as a rule, active = well fitted inhibition curve with a large enough effect; inconclusive = small, poorly fitted or top-dose-only effect; inactive = flat fitted curve, though single readings scatter. The source holds several records for some structures; these can differ, active in one and inactive in another. The source holds more than one record for some entries. This is not the full list of results. There may be further records. Results that share an entry are repeated measurements in other runs, samples, wells, individuals or studies. A tag in brackets gives the origin of a value. Letters count within one entry. Signs of the kind (2×) stand for listed records that agree.

Sequence of UniProt P51570 (P51570 whole entry, looked up): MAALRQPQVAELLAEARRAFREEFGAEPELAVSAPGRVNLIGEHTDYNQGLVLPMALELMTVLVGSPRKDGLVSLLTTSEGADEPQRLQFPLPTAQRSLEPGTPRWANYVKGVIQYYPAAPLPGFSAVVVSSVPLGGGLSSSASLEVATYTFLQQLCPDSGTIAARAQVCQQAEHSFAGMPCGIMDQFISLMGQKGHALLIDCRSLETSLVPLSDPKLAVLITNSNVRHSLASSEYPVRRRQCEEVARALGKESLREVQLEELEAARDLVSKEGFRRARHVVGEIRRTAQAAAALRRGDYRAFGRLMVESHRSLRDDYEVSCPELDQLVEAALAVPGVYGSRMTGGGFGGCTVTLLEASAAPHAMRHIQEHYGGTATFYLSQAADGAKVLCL

This assay addresses Galactokinase (Homo sapiens) (UniProt P51570). The experiment in a line: qHTS for Inhibitors of Human Galactokinase (GALK): SAR round 3. The following applies: ADP detection luminescence, 1 h; series mostly up to 57.5 µM. The source says:
Inherited deficiency of galactose-1-phosphate uridyltransferase (GALT) can result in a potentially lethal disorder called Classic Galactosemia (OMIM 230400). Several lines of evidence indicate that an elevated level of galactose-1-phosphate (gal-1-p), the product of galactokinase (GALK), is a major, if not sole, pathogenic mechanism in patients with classic galactosemia. Therefore, finding inhibitors of GALK is a potential novel therapy for this inherent metabolic disease and is the long term goal of this project. Active compounds observed in the qHTS GALK assay (AID: 1868) were cherry picked and re-screened for validation. GALK (provided by Kent Lai) was assayed using ATP and D-(+)-Galactose (Sigma-Aldrich cat# G0750) as substrates. Promega ADP-Glo technology was used to detect the ADP product formed after the kinase reaction. Kinase reactions with and without GALK were used as negative and positive controls together with Protein Tyrosine Phosphatase CD45 inhibitor (EMD Bioscience cat# 540215) which is shown to inhibit GALK activity. Decrease in activity corresponds to inhibition of the enzyme, the desired outcome for this assay. NIH Molecular Libraries Probe Production Network [MLPCN] NIH Chemical Genomics Center [NCGC] Grant: MH085689-01 PI Name: Kent Lai, University of Utah
Three uL/well of ATP-buffer solution (35 uM ATP, 20mM HEPES pH8.0, 5 mM MgCl2, 60 mM NaCl, 1 mM DTT, 0.01% BSA final concentration) was dispensed into 1536-well, assay plates (Greiner, solid white medium-binding plates) with Aurora Discovery BioRAPTR Flying Reagent Dispenser (FRD; Beckton-Dickenson). Compound and control solution (23 nL) was transferred to the assay plate using the Kalypsys 1536-pin tool apparatus. One uL/well GALK-galactose solution (5 nM GALK, 100 uM galactose, 20 mM HEPES pH8.0, 5 mM MgCl2, 60 mM NaCl, 1 mM DTT, 0.01% BSA final concentration) was then added using the FRD yielding a total kinase reaction volume of 4 uL/ well. After 1 hour of room temperature incubation, 4 uL Kinase-Glo Plus reagent was added for a final assay volume of 8 uL/well. Luminescence was detected with the ViewLux plate reader (Perkin Elmer, Waltham, MA) after 2 min incubation using a 1 sec exposure time and 2x binning.
(In general: Quantitative high-throughput screening tests each substance at several concentrations.)
Regarding `O=C1CCCC2=C1C(c1[nH]ncc1Cl)N=C(Nc1nc3ccccc3o1)N2` (centres undefined), the Potency result is “inactive (2×) and active: 8.63, 12.2, 15.3, 17.2 µM [separate samples]”.

For the compound `O=C1CCCC2=C1C(c1[nH]ncc1Br)N=C(Nc1nc3ccccc3o1)N2` (centres undefined), the Potency result is “active: 12.2 µM [sample A] and inactive [sample B] and active: 17.2 µM [sample C]”.

In the case of `O=C1CCCC2=C1C(c1[nH]ncc1Cl)N=C(Nc1nc3cc(Br)ccc3o1)N2` (centres undefined), the Potency result was “inactive [sample A] and active: 9.68 µM [sample B]”.

Turning to `O=C1CCCC2=C1C(c1ccncc1Br)N=C(Nc1nc3ccccc3o1)N2` (centres undefined), the Potency entry was “active: 6.85 µM [sample A] and inactive [sample B] and active: 12.2 µM [sample C]”.
